Assay results taken from PubChem BioAssay AID1159614 (National Center for Advancing Translational Sciences (NCATS), 2016).
Hit rate of the full screen: of about 45,000 compounds, about 65 (0.1%) were called active. Calls follow the shape of the dose curve; as a rule, active = well fitted activation curve with a large enough effect; inconclusive = small, poorly fitted or top-dose-only effect; inactive = no such curve, though single readings can be large or run the other way. The list shows a part of the results.

target: Galactocerebrosidase (Homo sapiens) (UniProt P54803); experiment: A Novel Cell-Based Assay to Identify Small Molecules for B -Galactocerebrosidase; details: 145M-Twi-hGALC-G270D cells (Twitcher mouse brain line with human GALC G270D), HMU-beta-Gal fluorescence, 48 h; series mostly up to 57.5 µM; activation: at the top concentration; also: 0% is about no effect; nearly all actives have a fitted effect of over 65% in size
Method in brief: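 Brain-derived Twitcher mouse 145M-Twi cells stably expressing human GALC-G270D or wild-type GALC, treated live, then residual GALC activity read by fluorescence of HMU-b-Gal substrate (0.1 mM final) in citrate-phosphate buffer pH 5.2 with sodium taurocholate. Signal increase indicates enhancement.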

UniProt P54803, sequence (P54803 whole entry, looked up): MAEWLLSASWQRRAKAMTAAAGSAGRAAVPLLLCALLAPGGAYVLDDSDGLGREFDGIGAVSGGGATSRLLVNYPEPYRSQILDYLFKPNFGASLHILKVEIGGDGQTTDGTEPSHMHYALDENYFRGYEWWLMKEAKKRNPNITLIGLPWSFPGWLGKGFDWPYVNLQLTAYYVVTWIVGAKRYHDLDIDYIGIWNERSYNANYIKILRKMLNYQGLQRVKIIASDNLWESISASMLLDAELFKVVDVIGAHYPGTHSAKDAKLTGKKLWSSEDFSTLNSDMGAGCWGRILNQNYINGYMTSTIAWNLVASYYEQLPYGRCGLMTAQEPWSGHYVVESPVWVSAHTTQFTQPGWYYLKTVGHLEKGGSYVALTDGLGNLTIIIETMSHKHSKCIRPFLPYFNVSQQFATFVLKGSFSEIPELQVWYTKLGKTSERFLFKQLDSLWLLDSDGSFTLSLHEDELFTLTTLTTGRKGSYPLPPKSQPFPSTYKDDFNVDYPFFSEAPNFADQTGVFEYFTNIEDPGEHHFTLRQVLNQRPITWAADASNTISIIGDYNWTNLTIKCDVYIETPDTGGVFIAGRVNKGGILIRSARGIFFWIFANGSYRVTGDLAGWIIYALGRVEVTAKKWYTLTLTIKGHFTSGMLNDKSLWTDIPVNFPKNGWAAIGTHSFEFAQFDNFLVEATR

activation, inactive:
COc1ccc(C(=O)n2nc(-c3ccc(Cl)cc3)nc2NCc2ccco2)cc1 7.88%, CCOc1ccc(NC(=O)CSc2ncnc3c2sc2ccccc23)cc1 -7.24%, CCc1ccc(NC(=O)c2cc3c(COC(C)=O)cnc(C)c3oc2=O)cc1 -8.9%, CCCCC(=O)Nc1cc(-c2nc3cccnc3s2)ccc1C -10.1%, COc1ccc(-c2nn(-c3ccc(C)cc3)c3c2cnc2ccc(C)cc23)cc1OC -7.29%, Cc1ccc(C)c(-n2nnc(-c3nc(-c4ccccc4C)no3)c2C)c1 -19.7%, COC(=O)c1cc(NC(=O)c2sc3ccccc3c2Cl)cc(C(=O)OC)c1 -14%, Cc1cccc(N2CCN(c3ncnc4c3nc3n4CCCCC3)CC2C)c1 (centres undefined) -21.5%, CCOc1ccc(-c2nc(CSCC(=O)NCc3ccc(C)cc3)c(C)o2)cc1 -15.2%, COc1ccc(CCNc2nc3cc(OC)c(OC)cc3c3nc(-c4ccccc4)nn23)cc1OC 9.56%, COC(=O)c1cc2occc2n1CC(=O)Nc1ccc(C)cc1Cl -10.4%, O=C(NCC(c1cccnc1)N1CCN(Cc2ccccc2)CC1)C(=O)Nc1cccc(Cl)c1 (centres undefined) -13.6%, O=C(O)c1cccc(-n2cnc3cccnc32)c1 -2.76%, CCCN1CCN(CCCNC(=O)C(CC)n2nc(C)n3c(cc4occc43)c2=O)CC1 (centres undefined) -11.7%, COc1cccc(NC(=O)c2cc3c(-c4ccc(Cl)cc4)nn(C)c3s2)c1 -12.5%, CC1=C(C(=O)O)N2C(=O)[C@@H](NC(=O)[C@H](N)C3=CCC=CC3)[C@H]2SC1 10%, COCc1c(Br)c(C)nc2sc3c(=O)n(-c4cccc(Br)c4)nnc3c12 -12.5%, N#Cc1ccccc1CSc1nnc2ccc3ccccc3n12 -12.6%, Cn1c(C(=O)N2CCC(C(=O)NCCc3ccccc3)CC2)cc2sccc21 -6.76%, CCC(C(=O)NC1CCCCC1)n1c(SCc2cccc(C)c2)nc2ccncc21 (centres undefined) -9.28%, CCN(CC)CCNC(=O)c1cn(CC)c2ccc(S(=O)(=O)N(C)C3CCCCC3)cc2c1=O -9.57%, Cc1cc(=O)n(CC(=O)NC(C)c2ccccc2)c2c1c(C)nn2-c1cccc(F)c1 (centres undefined) 4.63%, COc1cc(C(=O)NCCCCCC(=O)O)cc(OC)c1OC -10.8%, CC(NC(=O)c1ccco1)c1nc(-c2ccccc2)no1 (centres undefined) -8.18%, CCN1C(=O)c2ccccc2S(=O)(=O)c2ccc(C(=O)NCc3ccc(OC)cc3)cc21 -17.2%, Nc1ccc([N+](=O)[O-])cc1O -6.94% [at 114 µM], COc1cc(OC)cc(-c2cc3nc(C)c(CCC(=O)Nc4ccccc4OC)c(C)n3n2)c1 -9.54%, CCc1ccccc1NC(=O)CSc1nnc(-c2ccccc2)c(-c2ccccc2)n1 -5.9%, O=C(CN(c1ccc(Cl)c(C(F)(F)F)c1)S(=O)(=O)c1ccccc1)Nc1cccnc1 -6.35%, COCCNC(=O)Cn1c(=O)c2cccn2c2ccc(F)cc21 -13.2%, C[C@@H]1CCC[C@H](C)N1CCCC(O)(c1ccccc1)c1ccccn1 (some centres undefined) -12%, NC(=O)CSc1nc2c(oc3ccccc32)c(=O)n1Cc1ccccc1 -4.39%, OC[C@]1(O)OC[C@@H](O)[C@H](O)[C@@H]1O -18.4%, CCSc1oc(-c2cccs2)nc1S(=O)(=O)c1ccc(Br)cc1 -28.1%, CCc1nnc(NC(=O)c2nc(SC)ncc2Cl)s1 -23%, Cc1ccccc1C(=O)Nc1c(C(=O)Nc2cccc(F)c2)oc2ccccc12 -5.71%, CN(C1CCCCC1)S(=O)(=O)c1ccc2c(c1)c(=O)c(C(=O)NCc1ccc(F)cc1)cn2C -15%, COc1ccccc1CNC(=O)C1CCN(C(=O)c2sccc2-n2cccc2)CC1 -12.7%, COc1ccccc1CNC(=O)c1cc2c(-c3ccc(Cl)cc3)nn(C)c2s1 -7.11%, CCn1ccc2c(OCC(=O)Nc3ccc(C(C)=O)cc3)cccc2c1=O -3.8%, O=S(=O)(NCC(c1ccco1)N1CCN(c2ccccc2)CC1)c1ccccc1 (centres undefined) -3.91%, Cc1cccn2c3c(c(=O)nc12)C(c1ccc(F)cc1)CC(=O)N3 (centres undefined) -22%, CCCN(C(=O)c1c(C)oc2ncnc(N3CCOCC3)c12)c1ccc(Cl)c(Cl)c1 -10.9%, CCOc1ccc(Cn2nnc(C(=O)Nc3ccc(Cl)cc3)c2N)cc1 8.04%, O=[N+]([O-])c1cncn1CCN1CCOCC1 -19.1%, CCOC(=O)C1CCCN(C(=O)Cn2ncc3c4ccccc4n(Cc4ccccc4)c3c2=O)C1 (centres undefined) -0.283%, CCc1ccccc1NC(=O)C(C)n1c(=O)cc(C)c2c(C)nn(-c3ccccc3)c21 (centres undefined) -4.57%, CCN(CC)S(=O)(=O)c1ccc2c(c1)nc(CN(C)C(=O)Nc1ccc(C)c(F)c1)n2C 0.128%, O=C(OCC1CCCO1)c1ccc2c(c1)N(Cc1ccccc1)C(=O)c1ccccc1S2(=O)=O (centres undefined) 3.9%, CCc1ccccc1NC(=O)CN1C(=O)CCSc2ccc(S(=O)(=O)N3CCCC3)cc21 -10.1%, COc1ccc(NC(=O)c2sc3nc(C(F)(F)F)cc(C)c3c2N)cc1OC -3.51%, Cc1ccc(NC(=O)c2nc(S(C)(=O)=O)ncc2N(Cc2ccco2)Cc2cccs2)cc1C -19.5%, COc1ccccc1NC(=O)c1cc2c(C)nn(-c3ccccc3)c2s1 -2.01%, COc1ccc(N2CCN(C(=O)COCc3cc(-c4ccc5c(c4)OCO5)on3)CC2)cc1 -6.95%, COCCCNC(=O)CSc1nc2cc3c(cc2c(=O)n1CCCC(=O)NCc1ccc2c(c1)OCO2)OCO3 -6.46%, Cn1c(=O)cc(SCC(=O)N2CCN(c3ccccc3F)CC2)c2ccc(Cl)cc21 -21.5%, Cc1ccccc1OCCSc1nc2ccc(NC(=O)c3cccs3)cc2s1 -25.5%, CCn1nc(-c2ccccc2)c(-c2ccccc2)c(C(=O)Nc2ccc(NC(C)=O)cc2)c1=O -14.2%, Cc1cc(C)cc(Oc2nc3ccccn3c(=O)c2/C=C(\C#N)c2nc3ccccc3s2)c1 -6.1%, O=C(NC1CCN(Cc2ccccc2)CC1)c1ccc(Cn2c(=O)c3ccccc3n(Cc3ccc(F)cc3)c2=O)cc1 -20.1%, Cc1ccc(-c2csc(=Nc3ccccc3)n2Cc2ccc3c(c2)OCO3)cc1 -13.8%, Cc1ccc(Cn2ccnc2SCC(=O)Nc2nnc(C)s2)cc1 -10.5%, COc1ccc(OC)c(NC(=O)Nc2c(C)n(C)n(-c3ccccc3)c2=O)c1 -11.9%, O=C(Cc1ccccc1)Nc1sc2c(c1C(=O)Nc1ccc(Br)cc1)CCCC2 -22.3%
